# From PMC10030265, “The lipid linked oligosaccharide polymerase Wzy and its regulating co-polymerase, Wzz, from enterobacterial common antigen biosynthesis form a complex” (Open Biology, 2023)
# No constants are given. Whether binding was seen depends on the method and setting. For some assays here: Binding seen in cells or lysates may run through a third protein. Some results given as binding are weak or reduced against the parent protein; the word gives no strength. For some assays here: Tags and fused reporters may be left off the sequences shown.
# What was measured:
# [1] = biological target: WzyEPA-His10 (Pectobacterium atrosepticum) (UniProt Q6CZF1); assay: pull-down; tandem affinity co-purification of co-expressed GST-WzzEPA and WzyEPA-His10 from DDM-solubilised E. coli membranes: glutathione sepharose 4B then cobalt resin, and the reverse order (nickel resin then glutathione sepharose 4B); batch, 4°C, 0.026% DDM
# [2] = biological target: PglL-distrepII-mClover3 (Neisseria meningitidis) (UniProt G1FG65); assay: FRET or BRET; in vivo FRET in suspensions of E. coli C43(DE3) cells in PBS; mClover3 donor, mCherry acceptor; 488-14/620-20 nm; corrected for background and bleed-through
# WzyEPA-distrepII [3] = biological target: T1, WzyEPA-distrepII (Pectobacterium atrosepticum, UniProt Q6CZF1 1-463); assay: native gel or EMSA; blue-native PAGE (Bis-Tris 4-16%) of the affinity-purified co-expressed complex, western immunoblot with anti-His and anti-strep tag II; both purified
# T1 construct: WzyE, ECA polymerase, Pectobacterium atrosepticum SCRI 1043 (ATCC BAA-672); cloned into a proprietary vector constructed by Huanting Liu; Predicted 57 kDa; the distrepII tag is TEV protease-cleavable; source: DDM-solubilised membranes; not shown: distrepII, C-terminal, kept
# T1 sequence (looked up): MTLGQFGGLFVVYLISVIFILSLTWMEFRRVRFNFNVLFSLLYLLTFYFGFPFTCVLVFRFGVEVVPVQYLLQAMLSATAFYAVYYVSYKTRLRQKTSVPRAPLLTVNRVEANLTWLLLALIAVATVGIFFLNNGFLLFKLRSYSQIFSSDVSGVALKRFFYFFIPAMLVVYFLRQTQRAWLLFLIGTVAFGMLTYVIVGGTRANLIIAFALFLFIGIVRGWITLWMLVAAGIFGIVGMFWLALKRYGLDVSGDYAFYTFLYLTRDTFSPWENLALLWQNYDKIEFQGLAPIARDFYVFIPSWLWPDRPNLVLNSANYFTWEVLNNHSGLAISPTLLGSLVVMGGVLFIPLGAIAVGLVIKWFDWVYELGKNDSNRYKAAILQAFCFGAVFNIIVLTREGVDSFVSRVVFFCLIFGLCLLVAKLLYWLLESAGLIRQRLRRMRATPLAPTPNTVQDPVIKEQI
# WzyEPA-distrepII [4] = biological target: T1, WzyEPA-distrepII; assay: pull-down; tandem affinity co-purification of co-expressed His6-WzzEPA and WzyEPA-distrepII from DDM-solubilised E. coli membranes: cobalt or Talon resin and streptactin or streptactinXT resin, in either order; batch, 4°C, 0.026% DDM; SDS-PAGE and western blot
# WzyEPA-distrepII [5] = biological target: T1, WzyEPA-distrepII; assay: SEC; superose 6 10/300; co-expressed and co-purified complex compared with the individually expressed and purified proteins; both purified
binder,measurement,setting,value
"GST-WzzEPA (protein, UniProt Q6CZE3 1-348) MKSENLSTGNALIDNELDIRGLFRLLWRGKVWPIAIGLLFAVVALGYSYLVKQEWGATSITDKPTVNMLGGYYSQQQFLRNLDARSFSSPQPEQPSISAGAYDEFIMQLAAYDTRRDFWLQTDYYKQRLEGDEKADAALLDELVNNIQFTARDDGKKTNDSVKLVAETSSDSNTLLRQYVVFASQRAANHLNEEIKGAWAARTIFMKSQIKRQEAVAKAIYDREVRSVELALKIAQQQGISRSQTDTPADEIPASEMFLLGRPMLQARLETLQTSGPHYELDYDQNRAMLATLNVGPTLEASFQTYRYLRTPEEPVKRDSPRRAFLMVMWGAIGVLVGAGVALARRLR",binding,[1],binds
"mCherry-WzzEPA (protein, UniProt Q6CZE3 1-348) MKSENLSTGNALIDNELDIRGLFRLLWRGKVWPIAIGLLFAVVALGYSYLVKQEWGATSITDKPTVNMLGGYYSQQQFLRNLDARSFSSPQPEQPSISAGAYDEFIMQLAAYDTRRDFWLQTDYYKQRLEGDEKADAALLDELVNNIQFTARDDGKKTNDSVKLVAETSSDSNTLLRQYVVFASQRAANHLNEEIKGAWAARTIFMKSQIKRQEAVAKAIYDREVRSVELALKIAQQQGISRSQTDTPADEIPASEMFLLGRPMLQARLETLQTSGPHYELDYDQNRAMLATLNVGPTLEASFQTYRYLRTPEEPVKRDSPRRAFLMVMWGAIGVLVGAGVALARRLR",binding,[2],no binding
"His6-WzzEPA (natural protein, Pectobacterium atrosepticum, UniProt Q6CZE3 1-348, looked up, WzzE, polysaccharide co-polymerase of enterobacterial common antigen biosynthesis, Pectobacterium atrosepticum SCRI 1043 (ATCC BAA-672); cloned into pEHisTEV; Predicted 42 kDa; His6 tag is TEV protease-cleavable; The methods say that Wzz ran as a double band and that the lower band was not seen by the anti-His antibody (partly untagged); Isolated Wzz may have various oligomeric states; octamer in …) MKSENLSTGNALIDNELDIRGLFRLLWRGKVWPIAIGLLFAVVALGYSYLVKQEWGATSITDKPTVNMLGGYYSQQQFLRNLDARSFSSPQPEQPSISAGAYDEFIMQLAAYDTRRDFWLQTDYYKQRLEGDEKADAALLDELVNNIQFTARDDGKKTNDSVKLVAETSSDSNTLLRQYVVFASQRAANHLNEEIKGAWAARTIFMKSQIKRQEAVAKAIYDREVRSVELALKIAQQQGISRSQTDTPADEIPASEMFLLGRPMLQARLETLQTSGPHYELDYDQNRAMLATLNVGPTLEASFQTYRYLRTPEEPVKRDSPRRAFLMVMWGAIGVLVGAGVALARRLR",binding,WzyEPA-distrepII [3],binds
same,binding,WzyEPA-distrepII [4],binds
same,binding,WzyEPA-distrepII [5],binds
